For assay [1], the target named is T1, human BAFF (10056-HNCH, Sino biological) (human, UniProt Q9Y275 partial chain).
T1 construct: Bought protein
The assay can be described thus: competition ELISA: biotin-labeled BAFF to coated BAFF-R. The procedure:
The blocking activity of the antibodies and the fusion proteins for receptors and ligands such as BAFF/BAFF-R, BAFF/BCMA, BAFF/TACI, APRIL/BCMA, APRIL/TACI, and p40/IL-12R1 was assayed by the ELISA method. The specific procedures were as follows:
A receptor protein was diluted to 2 μg/mL with PBS at pH 7.4 (BasalMedia, B320) and added to a 96-well microplate (Corning, 3590) at 100 μL/well. The plate was incubated at 4° C. overnight. After the liquid was discarded, 200 μL of 1% Casein blocking solution (Thermo, 37528) was added to each well for blocking, and the plate was incubated at 37° C. for 2 h. After the blocking was completed, the blocking solution was discarded, and the plate was washed 3 times with a PBST buffer (PBS at pH 7.4 containing 0.1% tween-20) for later use. A biotin-labeled ligand protein at a fixed concentration was mixed with the antibody or fusion protein diluted in gradient, pre-incubated at 37° C. for 30 min, and added to a blocked microplate. The plate was incubated at 37° C. for 1.5 h. After the incubation was completed, the plate was washed 3 times with PBST. 100 μL of streptavidin-HRP (Invitrogen, 434323, diluted at a ratio of 1:4000) was added to each well, and the plate was incubated at 37° C. for 1 h. The supernatant was removed, and the plate was washed 3 times with PBST. 100 μL of TMB chromogenic substrate (KPL, 5120-0077) was added to each well, and the plate was incubated at room temperature for 10-15 min. The reaction was stopped by adding 50 μL of 1 M H₂SO₄ to each well. The plate was read for absorbance values at 450 nm on a microplate reader, the curves for the inhibition of the binding of the ligands to the receptors were fitted with software, and the IC₅₀ values were calculated.
On the technique in general: ELISA stands for enzyme-linked immunosorbent assay.

Assay [2] has as its target T2, human APRIL (5860-AP-010/CF, R&D Systems) (human, UniProt O75888 115-250, limits assumed).
T2 sequence (looked up): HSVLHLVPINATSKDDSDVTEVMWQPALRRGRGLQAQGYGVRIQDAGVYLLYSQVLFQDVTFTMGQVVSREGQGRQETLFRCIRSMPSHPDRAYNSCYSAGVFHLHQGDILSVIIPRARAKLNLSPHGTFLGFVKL
The assay can be described thus: cell-based or functional assay.

The target of assay [3] is BAFF (R&D Systems, 7537-BF) (UniProt Q9Y275 partial chain). The assay can be described thus: cell-based or functional assay.
Assay [4] addresses T3, BAFF (ACROBiosystems, BAF-H5248) (UniProt Q9Y275 partial chain).
T3 construct: Bought protein used in the ELISA with coated test sample
In words: ELISA, fusion protein coated, BAFF titrated, Anti-His-HRP. On the procedure: The binding activity of the TACI fusion proteins for BAFF and APRIL was assayed by the ELISA method (coating a test fusion protein sample). The specific procedures were as follows:
The test sample was diluted to 2 μg/mL with a PBS (BasalMedia, B320) buffer at pH 7.4 and added to a 96-well microplate (Corning, 3590) at 100 μL/well. The plate was incubated at 4° C. overnight. After the liquid was discarded, 300 μL of 5% skim milk (BD, 232100) diluted with PBS was added to each well for blocking, and the plate was incubated at 37° C. for 2 h. After the blocking was completed, the blocking solution was discarded, and the plate was washed 3 times with a PBST buffer (PBS at pH 7.4 containing 0.1% tween-20). 100 μL of BAFF (ACROBiosystems, BAF-H5248) or APRIL (R&D Systems, 5860-AP-010/CF) diluted in a gradient was added to each well, and the plate was incubated at 37° C. for 1 h. After the incubation, the plate was washed 3 times with PBST. When detecting the binding to BAFF, 100 μL of Anti-His-HRP (Sino biological, 105327-MM02T-H, diluted at a ratio of 1:2000) was added to each well; when detecting the binding to APRIL, 100 μL of anti-HA-HRP (Abcam, ab1190, diluted at a ratio of 1:4000) was added to each well. The plate was incubated at 37° C. for 1 h. The plate was washed 3 times with PBST. 100 μL of TMB chromogenic substrate (KPL, 5120-0077) was added to each well, and the plate was incubated at room temperature for 10-15 min. The reaction was stopped by adding 50 μL of 1 M H₂SO₄ to each well. The plate was read for absorbance values at 450 nm on a microplate reader, the binding curves of the antibodies to an antigen were fitted with software, and the EC₅₀ values were calculated.

B1: TACI-9-15Fc2 fusion protein (Fc fusion)
chain: STSCREEQGEFYDHLLRDCISCASICGQHPKQCAAFCEN[omitted - human IgG1 Fc with changes]
notes: Full-length chain
As for B1, the 50% inhibitory concentration (IC50) (usually the midpoint of a concentration-inhibition curve) in assay [1] was 1.35 nM. For the same molecule, the “IC50 (nM) for the inhibition of the APRIL-induced B cell proliferation” value in assay [2] is 0.231 nM. Besides, the “IC50 (nM) for the inhibition of the BAFF-induced B cell proliferation” value in assay [3] stood at 0.054 nM. Besides, the concentration for a half-maximal effect (EC50) (usually the concentration that produces a half-maximal response) in assay [4] came out at 8.8 nM.

B2: TACI-9-15Fc1 fusion protein (Fc fusion)
chain: STSCREEQGEFYDHLLRDCISCASICGQHPKQCAAFCENKL[omitted - human IgG1 Fc with changes]
notes: Full-length chain of TACI-9-15 or a truncated form, linker and Fc of human IgG
For B2, the IC50 in assay [1] is 2.62 nM. The concentration for a half-maximal effect (EC50) in assay [4] was 7.02 nM.

B3: TACI-9-15Fc3 fusion protein (Fc fusion)
chain: STSCREEQGEFYDHLLRDCISCASICGQHPKQCAAFCE[omitted - human IgG1 Fc with changes]
notes: Full-length chain
B3: in assay [1], the IC50 turned out to be 1.07 nM. For the same molecule, in assay [4], the half-maximal effective concentration (EC50) was 9.07 nM.

B4: TACI-9-15Fc4 fusion protein (Fc fusion)
chain: [omitted - human IgG1 Fc]GGSSTSCREEQGEFYDHLLRDCISCASICGQHPKQCAAFCENK
notes: Full-length chain
With B4, the half-maximal inhibitory concentration (IC50) in assay [1] came to 1.23 nM. Further, the EC50 in assay [4] worked out at 20.1 nM.

The values are drawn from US20240301031A1 (JIANGSU HENGRUI PHARMACEUTICALS, published 2024).
